From PMC4336329 (PLoS ONE, 2015) come the findings set out here.

Molecules are shown by their SMILES. Out of some 310,000 compounds screened, about 2,200 (0.71%) showed an effect of 50% or more. Effects have a minus sign here. This is one part of the list.

The target in the assay is human ether-à-go-go-related gene (hERG) potassium channel (human, UniProt Q12809). In words: primary screen, population patch clamp on CHO cells stably expressing hERG.
Sequence of human ether-à-go-go-related gene (hERG) potassium channel (Q12809 whole entry, looked up): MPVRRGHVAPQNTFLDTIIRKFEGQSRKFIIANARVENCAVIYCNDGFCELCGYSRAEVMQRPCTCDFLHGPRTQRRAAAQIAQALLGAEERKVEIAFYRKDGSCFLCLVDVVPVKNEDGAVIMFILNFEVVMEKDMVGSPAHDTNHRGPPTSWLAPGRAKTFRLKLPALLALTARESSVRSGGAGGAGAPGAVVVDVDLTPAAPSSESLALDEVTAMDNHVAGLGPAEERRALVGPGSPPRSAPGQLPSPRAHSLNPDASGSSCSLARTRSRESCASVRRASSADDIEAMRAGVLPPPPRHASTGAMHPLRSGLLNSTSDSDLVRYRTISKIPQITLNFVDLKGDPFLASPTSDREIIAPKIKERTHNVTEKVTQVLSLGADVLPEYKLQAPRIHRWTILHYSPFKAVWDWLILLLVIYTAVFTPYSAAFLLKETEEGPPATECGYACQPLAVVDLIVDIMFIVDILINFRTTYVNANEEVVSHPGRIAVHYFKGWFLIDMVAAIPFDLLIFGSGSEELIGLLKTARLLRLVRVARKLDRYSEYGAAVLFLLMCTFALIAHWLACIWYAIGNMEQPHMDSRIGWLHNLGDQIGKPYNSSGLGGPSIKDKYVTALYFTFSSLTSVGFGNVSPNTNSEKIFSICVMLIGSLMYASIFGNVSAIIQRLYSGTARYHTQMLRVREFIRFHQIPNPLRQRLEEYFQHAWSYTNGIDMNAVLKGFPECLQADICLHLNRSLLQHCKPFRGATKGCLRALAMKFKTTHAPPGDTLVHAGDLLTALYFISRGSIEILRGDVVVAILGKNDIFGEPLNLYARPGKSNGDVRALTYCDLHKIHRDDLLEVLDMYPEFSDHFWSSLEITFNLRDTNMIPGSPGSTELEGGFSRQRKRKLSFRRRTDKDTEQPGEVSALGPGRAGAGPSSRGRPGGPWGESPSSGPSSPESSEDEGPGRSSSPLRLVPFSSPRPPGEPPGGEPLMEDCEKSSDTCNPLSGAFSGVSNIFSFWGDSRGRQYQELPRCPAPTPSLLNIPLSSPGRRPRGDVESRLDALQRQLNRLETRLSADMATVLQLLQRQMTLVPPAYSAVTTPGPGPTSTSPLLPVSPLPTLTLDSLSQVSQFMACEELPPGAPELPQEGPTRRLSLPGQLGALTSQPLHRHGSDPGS
With `O=C(c1cccc(Cl)c1)N1CCC(N2CCC(C(=O)N3CCCC3)CC2)CC1`, the “hERG current change (%, negative = inhibition) at 1uM” value is on record as -17.2%.

`CC1=C[C@@H]2c3cccc4[nH]cc(c34)C[C@H]2N(C)C1`: the “hERG current change (%, negative = inhibition) at 1uM” value came to 11.2%. `CCOP(=O)(OCC)C(NC(=O)CC(C)C)C(Cl)(Cl)Cl` (centres unmarked): the “hERG current change (%, negative = inhibition) at 1uM” value is reported as 16.4%.

Take `C/C(=N\NC(=O)c1ccc(F)cc1)c1ccccn1`: the “hERG current change (%, negative = inhibition) at 1uM” value turned out to be 15%.

As for `Cc1cccc(C)c1OCC(=O)NNC(=O)c1ccoc1C`, the “hERG current change (%, negative = inhibition) at 1uM” value amounted to 2.33%.

With `Cc1ccc(S(=O)(=O)c2nc(S(C)(=O)=O)sc2N2CCCCC2C)cc1` (centres unmarked), the “hERG current change (%, negative = inhibition) at 1uM” value worked out at 5.68%.

As for `O=C(O)CSc1ccc(NC(=O)Nc2ccccc2F)cc1`, the “hERG current change (%, negative = inhibition) at 1uM” value came out at 16.1%. To `COc1ccc(N2CCN(C(=O)CN(C3CCCCC3)S(C)(=O)=O)CC2)cc1` belongs 7.1%.

In the case of `CC1CCN(C(=O)N[C@@H](Cc2ccccc2)C(=O)O)CC1`, the “hERG current change (%, negative = inhibition) at 1uM” value is listed as 17.9%. In the case of `O=C(CSc1nnc(-c2ccc(S(=O)(=O)N3CCCC3)cc2)n1CC1CCCO1)NC1CC1` (centres unmarked), the “hERG current change (%, negative = inhibition) at 1uM” value was -2.9%.

Consider `O=C(CCS(=O)(=O)c1ccc(Br)cc1)Nc1ccc(Cl)cc1F`, for which the “hERG current change (%, negative = inhibition) at 1uM” value came out at 11%.

Regarding `CN(C(=O)c1ccccc1)c1nccnc1C#N`, the “hERG current change (%, negative = inhibition) at 1uM” value came out at 6.67%. In the case of `Cn1c(N)c(C(=O)COC(=O)c2ccccc2C(=O)c2ccccc2)c(=O)n(C)c1=O` it was -0.867%; in that of `CN(CCNC(=O)CN1CCN(Cc2ccccc2Cl)C1=O)Cc1ccccc1`, -0.949%; in that of `O=C(c1noc2c1CCCCC2)N1CCOCC1`, 5.13%. As for `C/C(=N\NC(=O)c1ccoc1C)c1ccccc1`, the “hERG current change (%, negative = inhibition) at 1uM” value is reported as -0.872%. `NC(=O)CSc1nnc2n(-c3ccccc3)c(=O)c3c4c(sc3n12)CCCCC4`: the “hERG current change (%, negative = inhibition) at 1uM” value is 9.62%.

For `Cc1ccc(-n2nnnc2SCC(=O)Nc2cc(C)on2)c(C)c1`, the “hERG current change (%, negative = inhibition) at 1uM” value came to 10.2%. Regarding `CC(C)(C)C(=O)CSc1nnc(-c2cccs2)n1CC1CCCO1` (centres unmarked), the “hERG current change (%, negative = inhibition) at 1uM” value is recorded as -1.53%. Take `C=CCN(CC=C)CCOc1ccccc1.O=C(O)C(=O)O`: the “hERG current change (%, negative = inhibition) at 1uM” value was found to be 12.5%. In the case of `Cc1ccc(C2CC2c2n[nH]c(=S)n2-c2cccc(Cl)c2)cc1` (centres unmarked) it was 10.9%; in that of `Nc1ccc2oc3ccc(N)cc3c(=O)c2c1`, 17.5%. In the case of `CCN1C(=O)N[C@@H](c2ccc(Br)cc2)C(C(=O)OC)=C1C` it was 8.57%. To `Cc1ccc2c3c(cccc13)-c1ccccc1C2=O` belongs 17%; to `COc1ccc(CCNC(=O)CCCn2c(SCC#N)nc3ccccc3c2=O)cc1OC`, 4.46%.

In the case of `CCN(CCn1cccn1)Cc1c(C(=O)N2C[C@@H](C)O[C@@H](C)C2)nc2ccc(Cl)cn12`, the “hERG current change (%, negative = inhibition) at 1uM” value was 19.9%. To `S=C(c1ccc(-c2ccc(Cl)cc2Cl)o1)N1CCCC1` belongs 15.6%; to `CC(C)CN(C(=O)CN(C)C(=O)Cc1ccc(Cl)cc1)c1c(N)n(CC(C)C)c(=O)[nH]c1=O`, 11.3%; to `CCn1c(SCC(=O)Nc2cccc(C)n2)nnc1-c1ccco1`, 0.773%. To `O=C(Cn1cc(C(=O)C(F)(F)F)c2ccccc21)NCc1ccco1` belongs 10.1%; to `CC1CCCC(NC(=O)CCNS(=O)(=O)c2ccc(Br)cc2)C1C` (centres unmarked), 3.02%. To `C=CCNC(=S)NNC(=O)c1cc(Cl)ccc1OC` belongs 15.1%; to `O=C(NC1CCCC1)C(c1ccc(F)cc1)N(C(=O)c1csnn1)C1CCCC1` (centres unmarked), 5.89%; to `CCN(C(=O)c1ccc(S(=O)(=O)N(C)C)cc1)C(C)C(=O)Nc1ccc(C)cc1` (centres unmarked), 15.2%.

On to `Cc1oc(-c2ccccc2F)nc1CS(=O)(=O)CC(=O)NCCCN1CCc2ccccc2C1`, for which the “hERG current change (%, negative = inhibition) at 1uM” value is recorded as -12.4%. In the case of `CC1CCN(CCCNS(=O)(=O)c2cc(Br)cc3c2N(C(=O)C2CC2)CC3)CC1` it was 11.9%; in that of `CCSc1nc(N)c2c3c(sc2n1)CN(C)CC3`, 5.6%; in that of `CC(=O)N(Cc1ccco1)Cc1cc2cccc(C)c2n2nnnc12`, 1.88%. As for `Cc1cccc(C)c1NC(=O)CNC(=O)c1cccc(S(=O)(=O)NCc2cccs2)c1`, the “hERG current change (%, negative = inhibition) at 1uM” value is listed as 7.29%. To `O=C(Nc1ccc(N2CCCCC2)cc1)c1cc([N+](=O)[O-])cc([N+](=O)[O-])c1` belongs 8.98%; to `Cc1cc(C(=O)CN2C(=O)NC3(CCCCC3)C2=O)c(C)n1Cc1ccc2c(c1)OCO2`, 10.5%. As to `CCn1cc(C(=O)OCC(=O)NCc2ccccc2Cl)c(=O)c2ccc(C)nc21`, the “hERG current change (%, negative = inhibition) at 1uM” value is listed as 13.1%. As for `C=CCn1c(-c2cccn(Cc3ccccc3)c2=O)n[nH]c1=S`, the “hERG current change (%, negative = inhibition) at 1uM” value stood at 15.8%. To `Cc1ccc(S(=O)(=O)c2nc(S(C)(=O)=O)sc2N2CCC(C(N)=O)CC2)cc1` belongs 0.161%. In the case of `COc1cccc(CNC(=O)C(CCSC)NS(=O)(=O)c2ccc3c(c2)oc(=O)n3C)c1` (centres unmarked) it was 3.54%. On to `CN(C)C(=O)c1cc(Cl)ccc1Sc1cc(Cl)ccc1Cl`, for which the “hERG current change (%, negative = inhibition) at 1uM” value is 7.7%. Take `O=C(NCc1ccccc1Cl)c1cccc(NC(=O)c2ccccc2)c1`: the “hERG current change (%, negative = inhibition) at 1uM” value came to 5.41%. As to `NS(=O)(=O)c1ccc(-n2ncc3c(=O)[nH]c(SCC(=O)Nc4nccs4)nc32)cc1`, the “hERG current change (%, negative = inhibition) at 1uM” value is 13.3%.

For the compound `Cc1cc2c(C)nc(N/N=C/c3ccc(F)cc3)nc2o1`, the “hERG current change (%, negative = inhibition) at 1uM” value is on record as -6.36%.

Take `COc1cc(SC)ccc1C(=O)Nc1cc(C)c(OCC(=O)N2CCOCC2)c(C)c1`: the “hERG current change (%, negative = inhibition) at 1uM” value was determined as 5.52%. On to `CC(Oc1cccc(F)c1)C(=O)Nc1ccc(N2CCOCC2)cc1` (centres unmarked), for which the “hERG current change (%, negative = inhibition) at 1uM” value is on record as 3.07%.

Consider `O=C(NCc1ccco1)C1CCCN1S(=O)(=O)c1ccccc1C(F)(F)F` (centres unmarked), for which the “hERG current change (%, negative = inhibition) at 1uM” value amounted to 12.6%. To `CCOC(=O)N1CCC2(CC1)C(C#N)=C(N)Oc1c2sc2nc(C)cc(C)c12` belongs 8.88%; to `O=[N+]([O-])c1ccc(N2CCCC2)nc1N1CCCC1`, 14.6%; to `Cc1cccc(C)c1NC(=O)COC(=O)Cc1ccsc1`, 9.06%. As to `Cc1ccc(/C=C/C(=O)O)cc1S(=O)(=O)Nc1ccccc1C(=O)O`, the “hERG current change (%, negative = inhibition) at 1uM” value stood at 10.8%.
